The text below walks through data of article PMC12136788.

Some of the results follow.

To fix the notation:
T1: UNK ZnF1-3 (human, UniProt Q9C0B0 31-174)
T1 sequence: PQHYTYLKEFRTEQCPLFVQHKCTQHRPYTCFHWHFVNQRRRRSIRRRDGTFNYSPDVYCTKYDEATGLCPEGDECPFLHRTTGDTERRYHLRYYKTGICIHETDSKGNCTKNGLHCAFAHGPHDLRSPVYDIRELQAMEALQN

B1: chr7:75932113:75932114:+_ENSG00000106211_ENST00000248553|hu_hu|hu_hu_hu_mus_False|28_98 (ssRNA)
RNA: GGGAGUUCUACAGUCCGACGAUCCUGCGACCACUCAUCCGGCAGCCGGGGCACCCCGAAAGCUUGAUCGAAGAGGCGGCUGUGUGCAGGGUACCAGUCCCGGAAUGCCCAGCUGGGCGGGCUCCGCAGCAGCGAGAAGGGCACCAACAGAGGAUUGAGCAUCA
B2: chr14:62207481:62207482:+_ENSG00000100644_ENST00000337138|hu_hu|motif|central (ssRNA)
RNA: GGGAGUUCUACAGUCCGACGAUCGGAACGUAACUGGAAGUCAUCAUCCAUUGGGAUAUAGGGAGCUAACAUCUCCAAGUCGGAAUCUGUGUCCUGAGUAGAAAAUGGGUUCUUUGCUUCUGUGUCUUCAGCAAAAAGUUUUUCCAACAGAGGAUUGAGCAUCA
B3: 3094694_3110175_347_CDS_ENSG00000088256_ENST00000078429|human|control|control (ssRNA)
RNA: GGGAGUUCUACAGUCCGACGAUCGAACGUGCUCUUCCCGCUCUCGCCCGUGCCGAGCAGCAGCAGCUUGAGCUCGCGCCGGGCGUCGCGCUUGUCCCGCCGCAGCUGCUUCUCGAUCUCGGCGUUGAUCCGCUUGGACUCCUUCAACAGAGGAUUGAGCAUCA
B4: chr6:71460543:71460544:+_ENSMUSG00000052656_ENSMUST00000064637|mus_hu|motif|central (ssRNA)
RNA: GGGAGUUCUACAGUCCGACGAUCCAACCAAAUAAAUUCUGUCAUCAACAUUAGCAUAAUGUGUAUUUCCCGUCACUGCACGGACAUUAAACUAAACUUCAAACCACAAAAACAUUGUGACUAACAUUAAAAAGGCAAGCUGUACAACAGAGGAUUGAGCAUCA
B5: 3469518_3474534_773_CDS_ENSMUSG00000037486_ENSMUST00000111215|mouse|control|control (ssRNA)
RNA: GGGAGUUCUACAGUCCGACGAUCUCUGCAUUGCUGCUGCUUCUUCUUCUGUUGUUGCUGCUUCAAGGCCUGUUUUAAUGCCUUUUUGCUGUGCUUCUGUGAUGGAGAAAUGACUUUACUUGCUGGAAUGGUGGGUGAUGGGCACAACAGAGGAUUGAGCAUCA
B6: chr11:87793471:87793472:-_ENSMUSG00000020483_ENSMUST00000020775|mus_mus|mus_mus_mus_hu_False|48_108 (ssRNA)
RNA: GGGAGUUCUACAGUCCGACGAUCUGGGGGCUGGGGAAAAAGAAUAAGCUGGAUCCCCCACCCCCCCACAUUGUCAACCCUACACGAGUUCUGAAUGGGCGACUCAUGAAAAUCAGCAGCUCAAACGGCAAUGACCACCCCACCCAACAGAGGAUUGAGCAUCA
B7: chr4:81936313:81936314:-_ENSMUSG00000008575_ENSMUST00000064770|mus_mus|motif|central (ssRNA)
RNA: GGGAGUUCUACAGUCCGACGAUCCCCACAAAAAGUACACAAAGAACAUUAUCCUCCAACCGGGCACAAUAAAACCUUCACGGACAUUCCGGCCCAGUCUGGGGCCUAUCCCAGAGGCCCGAACUCCAGAAAUUAAGUAAGUAACAACAGAGGAUUGAGCAUCA
B8: 180847415_180847535_5442_CDS_ENSMUSG00000026494_ENSMUST00000161017|mouse|control|control (ssRNA)
RNA: GGGAGUUCUACAGUCCGACGAUCCGACAGGCUUUCGGCCCUCUCCAACGACAAGCAUUCGUAGUGGCUGACUGUUGUCCUGCCAAGAGAGUUGCUUCUGCUGGCCAGCUGUUCCAGCUUGGCGCUGAAGAGCUUACUGCUGCUCAACAGAGGAUUGAGCAUCA
B9: chr2:20454729:20454730:-_ENSG00000055917_ENST00000338086|hu_mus|motif|central (ssRNA)
RNA: GGGAGUUCUACAGUCCGACGAUCAACAUAAUUGCCAUACUGAUCCUGUACCAACUGUUCUGUGUGUUGGUGAAGUUCUUCGGAGAUGGGUAAGGUCUGCUCUGCCGUGCAGUGCUCUAAGAUACGCUGAAUGACUCUGCAGCCCAACAGAGGAUUGAGCAUCA
B10: chr11:47008823:47008824:+_ENSG00000149179_ENST00000278460|hu_hu|motif|central (ssRNA)
RNA: GGGAGUUCUACAGUCCGACGAUCUCCCUGGCAUACACUGUUAAAAUAUUCAGUGAAGAACCUGGCAAUUCCAUAUUGGCGGAUAUCUUCCCUGUUUUCUAGCAGCUGGCACACUGCAUCCUCCAUGUAGGUGAGGACAUGUCGCAACAGAGGAUUGAGCAUCA
B11: chr1:25687284:25687285:+_ENSG00000183726_ENST00000374358|hu_mus|FALSE|FALSE (ssRNA)
RNA: GGGAGUUCUACAGUCCGACGAUCUCAUGAUUCUAGCAUUAUACAAUUUCAAGCUGAGAUUAUACUCAGAAAUAAGUUUAGAAAACAGUAUUACAAAAGACUGGGUGGGUGAGCAGGGUGCAAAAAGAAGCCCAUGCACGGCGGCAACAGAGGAUUGAGCAUCA
B12: chr3:119450855:119450856:-_ENSMUSG00000028134_ENSMUST00000029780|mus_hu|mus_mus_mus_hu_False|78_78 (ssRNA)
RNA: GGGAGUUCUACAGUCCGACGAUCUGUGGUGCCACUAAGAGGAGUAUUUGCUGUCUGGACCGCUGUCACAGCUUGAAGAACUGCCUGAGCACGUUGGUUUAAUGUAUUAUCUGUCUUUAGUUCUUUGUGAUUCGAGUACUGGAUCAACAGAGGAUUGAGCAUCA
B13: 51937465_51937585_3347_3pUTR_ENSMUSG00000020349_ENSMUST00000020608|mouse|control|control (ssRNA)
RNA: GGGAGUUCUACAGUCCGACGAUCACCACUCACUCUUUGACACAAGCCCCAUUCUGAGAAUCUGUAUGUACAUGACAUGUGUCAACUAUAGGAAAGACUCCAUUAGAGCCCUCUUUAUCGUCAGGAUCCCCAGUGCAGCUGCUUCAACAGAGGAUUGAGCAUCA
B14: chr5:28717518:28717519:+_ENSMUSG00000048271_ENSMUST00000114884|mus_hu|FALSE|FALSE (ssRNA)
RNA: GGGAGUUCUACAGUCCGACGAUCUGCUGAGGGCGUGGCAGAGCAGCGGCUGCUGCUCAUUUCUAUCACGUGUGACGGCGCUAUGGGUAAUUCACGCAAAUUGCUGUUCCUUGGCGCAGUGGGCUGCAUUUGCUGCAUGGGCCGCAACAGAGGAUUGAGCAUCA
B15: chr2:216225781:216225782:-_ENSG00000115414_ENST00000323926|hu_hu|motif|central (ssRNA)
RNA: GGGAGUUCUACAGUCCGACGAUCAAAUACUGGGAAAAAUUGAUAAAUAACAGGUAAGAGAAAGAUAUUUCUAGGCAAUUACGGGGAUCAUUUGGAAAAAGUGAGUACUGUGGAUAUUUAAAAUAUCACAGUAACAAGAUCAUGCAACAGAGGAUUGAGCAUCA
B16: chr17:7417611:7417612:+_ENSG00000181222_ENST00000322644|hu_hu|FALSE|FALSE (ssRNA)
RNA: GGGAGUUCUACAGUCCGACGAUCCAAGAGUCUGCAUCAGAAACGGGAUCCAGAAGUUCACCGGGAGCUCUGCCACAAGGCAUUUAUGUACAACGGAGCUGGGCUGGGGGUGACGCCCCGUGAGGGAGGCAAGAACUGCACAGCCAACAGAGGAUUGAGCAUCA
B17: chr12:48362563:48362564:+_ENSG00000134291_ENST00000256686|hu_hu|hu_hu_hu_mus_False|8_18 (ssRNA)
RNA: GGGAGUUCUACAGUCCGACGAUCUCCGUCAAGCCCUUCGAUAGACCCUUGCGGGGGAAACUGUAAUCACUUUGUAUGGGGAAGGAAAAGAAACGCCAAAAACUUUCCAAAAAGCGGUUCAAAAAGCUCCCAGGCCUGGGAGGUCAACAGAGGAUUGAGCAUCA
B18: chr4:17845017:17845018:+_ENSG00000109805_ENST00000514176|hu_mus|hu_hu_hu_mus_False|8_108 (ssRNA)
RNA: GGGAGUUCUACAGUCCGACGAUCGCUUCCUAACUUAGUAUCUUCAUUAAGGAACUCUGCAAGGUUAAGUUUACUUUUCUGUAGCGCAGCUGUUUUGGCUCGUCUGGGUAAUCUCAUCUUCAUUUCUAUUCUGGUUCCAUGAUCCAACAGAGGAUUGAGCAUCA
B19: 69964036_69964156_4217_ncRNA_ENSMUSG00000029208_ENSMUST00000154728|mouse|control|control (ssRNA)
RNA: GGGAGUUCUACAGUCCGACGAUCUAUAGGCAUAAAAAAACAACAAAUGUCUAGUAAGACAUUGAGUCUAUAUCUUAAAAAGCAAGUCAUAUCAGAUCAAGCAUUUGAGCUAAAAACUGUAAUACAAGGUGAUUCCAGAAAGUUCAACAGAGGAUUGAGCAUCA
B20: chr9:104964252:104964253:+_ENSMUSG00000032563_ENSMUST00000142424|mus_mus|FALSE|FALSE (ssRNA)
RNA: GGGAGUUCUACAGUCCGACGAUCAUCUGUCACAUGAAAGAUUUUAUGUAUCUGUUUUGGUGGCAGUCCAAGAUCUCGGUAAAAUUCCAAUCUAGAGUCAGGUUUAUAGAAGCGUGACACGGUUUUCCCGCCCACUGUCAGGGCCAACAGAGGAUUGAGCAUCA
B21: chr6:31700130:31700131:-_ENSG00000213719_ENST00000375779|hu_mus|motif|central (ssRNA)
RNA: GGGAGUUCUACAGUCCGACGAUCAUCUUCGGCGCUGGUUUCAUCCACUUCUUCUGGGAGGGGGGAUGUCAGGUAAUUGUCGGGAACCUUCAGGGCUUUCAGGAGUCCCUUCUCUAGGUUGUCAUUGAGGGCUGGGUUUGAGUUCAACAGAGGAUUGAGCAUCA
B22: chr4:17845017:17845018:+_ENSG00000109805_ENST00000514176|hu_mus|hu_hu_hu_mus_False|28_68 (ssRNA)
RNA: GGGAGUUCUACAGUCCGACGAUCGCUCUCUUAACUUGUAUCUUCAUUAAGGAACUCUGCAAGGUUAGUUUACUUUUUCUGUAGCGCAGCUGUUUUGGCUCGUCUGGUAGUCUCAUCCUUCAUUUCUGAUGGUGGUUCAUGAUCCAACAGAGGAUUGAGCAUCA

The target in the assay is T1, UNK ZnF1-3. The experiment in a line: nsRBNS (natural sequence RNA bind-n-seq); RBNS binding buffer (assumed for nsRBNS): 25 mM Tris pH 7.5, 150 mM KCl, 3 mM MgCl2, 0.01% Triton X-100, 500 ug/ml BSA, 20 U/ml SUPERase-In, 4 C; UNK is unkempt and MSI1 is Musashi-1; names of the RNAs are library labels; protein concentration not given here; high values mean tight binding.
In the case of B1, the binding signal was 0.901 enrichment R. Then B2, with 1.15 enrichment R; and B3, with 0.559 enrichment R; and B4, with 1.01 enrichment R. B5 displayed a binding signal of 0.465 enrichment R. As for B6, the binding signal was found to be 1.49 enrichment R. With B7 the figure was 1.25 enrichment R; with B8, 0.463 enrichment R; with B9, 0.842 enrichment R. Then B10, with 0.688 enrichment R; and B11, with 1.97 enrichment R.

For the molecule B12, the binding signal is 0.807 enrichment R. With B13 the figure was 0.901 enrichment R. In the case of B14, the binding signal is 0.527 enrichment R.

As to B15, the binding signal was 1.91 enrichment R.

On to B16, for which the binding signal is 2.61 enrichment R. With B17 the figure was 1.32 enrichment R; with B18, 0.557 enrichment R; with B19, 1.94 enrichment R. With B20 the figure was 1.13 enrichment R; with B21, 0.865 enrichment R; with B22, 0.349 enrichment R.
